# Assay results reported in PubChem BioAssay AID493208 (National Center for Advancing Translational Sciences (NCATS), 2011).
# About 340 (0.77%) of roughly 44,000 compounds were called active. Not shown: some 5% with an inconclusive outcome. Calls follow the shape of the dose curve; as a rule, active = well fitted inhibition curve with a large enough effect; inconclusive = small, poorly fitted or top-dose-only effect; inactive = flat fitted curve, though single readings scatter. The list shows a part of the results.
# Experiment: Acumen qHTS Assay for Inhibitors of the mTORC1 Signaling Pathway in MEF (Tsc2-/-, p53-/-) Cells: Sytravon; also: nearly all actives have a fitted effect of over 50% in size;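 as to activity change, negative = inhibition: plate controls were DMSO for no effect and rapamycin for full effect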
# Settings: phospho-rpS6 immunofluorescence/PI, 24 h; series mostly up to 38.3 µM; activity change, negative = inhibition: at the top concentration
# In short: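 Readout is phospho-S6 Alexa 488 signal normalized to PI per well, reported as % active cells with thresholds set from rapamycin (7.5 nM) and DMSO controls. Cells: Tsc2-/-, p53-/- MEFs, 24 hrs compound at 37 C; PI cell number serves as viability.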
# Potency is read from the fitted curve at half-maximal effect.
Structure (SMILES),"activity change, negative = inhibition",Potency
Cc1c(C(=O)NCc2ccc(F)cc2)sc2nc(-c3ccc(F)cc3)cn12,inactive: -0.522%,–
CCCCOc1ccccc1C1CC(=O)Nc2cc(OC)c(OC)cc21 (configuration not stated),inactive: 0.37%,–
CC(=O)Nc1c(C)nn(-c2ccccc2)c1N1CCC(C(=O)Nc2cccc(C(F)(F)F)c2)CC1,inactive: 4.47%,–
CCOC(=O)Cn1c(=O)n(CC2CCCO2)c2nc(-c3ccc(CC)cc3)nc(C(N)=O)c21 (configuration not stated),inactive: 2.78%,–
O=C(CSc1ncc2c(n1)-c1ccc(Cl)cc1N(Cc1ccccc1)S2(=O)=O)Nc1ccccc1C(F)(F)F,inactive: 1.65%,–
Cc1cc(C)cc(N(CC(=O)NCc2ccccc2Cl)S(=O)(=O)c2c(C)[nH]c(=O)[nH]c2=O)c1,inactive: 2.25%,–
CCOc1ccc(NC(=O)CN2CCSc3ccc(S(=O)(=O)N4CCCC4)cc32)cc1,inactive: -12.7%,–
CCn1cc(S(=O)(=O)c2ccc(C)cc2C)c(=O)c2cc(F)c(N3CCCCC3)cc21,inactive: -1.81%,–
CCN(CC)c1cc2c(cc1F)c(=O)c(S(=O)(=O)c1ccccc1)cn2C,inactive: 1.92%,–
COC(=O)c1c(NC(=O)/C=C/c2ccc(OC)c(OC)c2)sc2c1CCC2,inactive: 10.6%,–
Cc1noc(Cn2c(=O)c3ccccc3n(CC(=O)Nc3ccc(C(C)C)cc3)c2=O)n1,inactive: -7.25%,–
CCN(CC)CCCNC(=O)CN1C(=O)COc2ccc(S(=O)(=O)N3CCC(C)CC3)cc21,inactive: -0.644%,–
CC(Nc1oc(-c2ccc(COc3ccc(Cl)cc3)o2)nc1C#N)c1ccccc1 (configuration not stated),inactive: -19.2%,–
COCCNC(=O)CSc1nnc2[nH]c(=O)cc(C)n12,inactive: -0.705%,–
O=C(NCc1ccccc1)c1ccc2c(c1)nc1n2CCOC1,inactive: 0.456%,–
CCN(CC)c1ccc(NC(=O)CN2C(=O)c3cccnc3Oc3ccc(Cl)cc32)c(C)c1,inactive: -1.85%,–
CCc1ccccc1NS(=O)(=O)c1cc(Br)cc2c1N(C(=O)C1CC1)CC2,inactive: -1.12%,–
CCc1cccc(NS(=O)(=O)c2cc(-c3cnc(C)o3)ccc2OC)c1,inactive: 10.5%,–
CCOC(=O)Cn1c(=O)n(CC2CCCO2)c2nc(-c3c(F)cccc3Cl)nc(C(N)=O)c21 (configuration not stated),inactive: -0.736%,–
CCn1c(=O)c2sccc2n2c(CCCC(=O)Nc3ccc(OC)c(OC)c3)nnc12,inactive: -3.55%,–
COc1ccc(C(=O)Nc2nc3n(n2)C(c2ccc(F)cc2)C=C(c2ccc(Cl)cc2)N3)cc1 (configuration not stated),inactive: 0.45%,–
CCOC(=O)c1ccc(NC(=O)c2cc3c([nH]c2=O)CC(c2ccccc2)CC3=O)cc1 (configuration not stated),inactive: 7%,–
Cc1c(C(=O)N(C)C)sc2c1c(=O)n(-c1ccc(Cl)c(Cl)c1)c(=O)n2CC(=O)Nc1ccc(Br)cc1F,inactive: -0.0216%,–

Structure (SMILES),"activity change, negative = inhibition",Potency
CCCCC1CCC(CCCC(C)CCC(=O)O)CC1 (configuration not stated),inactive: 9.45%,–
COc1ccc(-n2cc(-c3ccc4c(c3)OCO4)n(CC(=O)Nc3cccc(C)c3)c2=O)cc1,inactive: 2.08%,–
Cc1cccc(NC(=O)Cn2cc(S(=O)(=O)Cc3ccccc3Cl)c3ccccc32)c1,inactive: 3.26%,–
O=C(CC1N=C2c3ccccc3N=C(SCC(=O)Nc3ccc(F)cc3)N2C1=O)NCc1ccc2c(c1)OCO2 (configuration not stated),inactive: -2.76%,–
CSc1ncc(Cl)c(C(=O)N(Cc2ccc(C(C)C)cc2)C2CCS(=O)(=O)C2)n1 (configuration not stated),inactive: -1.42%,–
Cc1ccccc1Cn1c(SCc2ccc(C(=O)NCCc3ccccc3)cc2)nc2ccncc21,inactive: -0.498%,–
Cc1cc(C)n(C(C)CC(=O)Nc2ccc(C)c(F)c2)n1 (configuration not stated),inactive: 12.5%,–
O=C(Cc1ccc(Cl)cc1)Nc1ccc2nn(-c3ccccc3)nc2c1,inactive: -4.81%,–
Cc1ccccc1C(c1c(C)n(C)n(-c2ccccc2)c1=O)c1c(C)n(C)n(-c2ccccc2)c1=O,inactive: -17.7%,–
CC(C)CCNc1ncnc2c1cnn2-c1cccc(Cl)c1,inactive: -1.38%,–
COCCNC(=O)C(=O)NCC(c1cccnc1)N1CCN(c2ccccc2)CC1 (configuration not stated),inactive: 8.53%,–
Cc1ccc(-n2c(SCC(=O)Nc3c(C)cccc3C)nc(O)c(C)c2=O)cc1,inactive: -0.584%,–
CCC1CN(C(=O)N2CCC(C(=O)NCc3ccco3)CC2)c2ccccc2O1 (configuration not stated),inactive: 2.86%,–
CCOc1ccc2c(c1)c(=O)c(C(=O)c1ccc(C)cc1)cn2Cc1ccccc1OC,inactive: 0.183%,–
CC(=O)c1cccc(NC(=O)N2CCC(CN3CCCCC3)CC2)c1,inactive: -5.16%,–
CC(C)c1ccc(NC(=O)Cn2c(=O)n(Cc3nc(-c4ccccc4)no3)c(=O)c3cc4c(cc32)OCO4)cc1,inactive: -14.3%,–
CCOc1ccccc1NC(=O)CN1C(=O)C2(SCC(=O)N2c2ccc(C)cc2)c2ccccc21 (configuration not stated),inactive: 2.15%,–
Cc1ccc(-n2ncc3c(=O)n(Cc4ccccc4C)cnc32)cc1C,inactive: -0.428%,–
Cc1cc(C)c(CN2C(=O)c3ccccc3S(=O)(=O)c3ccc(C(=O)OCC4CCCO4)cc32)c(C)c1 (configuration not stated),inactive: -4.9%,–
CCc1ccc(NC(=O)c2ccc(F)c(S(=O)(=O)NCCc3ccc(OC)c(OC)c3)c2)cc1,inactive: -17.7%,–
COc1cc(Cl)c(NC(=O)C(NS(=O)(=O)c2cccs2)C(C)C)c(OC)c1 (configuration not stated),inactive: 0%,–
CCCN(Cc1cccs1)C(=O)Nc1ccc(F)c(Cl)c1,inactive: -8.59%,–
COc1ccc(OC)c(Nc2c3c(nc4ccccc24)CCC3)c1,–,active: 5.21 µM

Structure (SMILES),"activity change, negative = inhibition",Potency
CS(=O)(=O)N1CCc2cc(C(=O)Nc3ccc(S(N)(=O)=O)cc3)ccc21,inactive: -1.51%,–
COc1cccc(Nc2sc(C(=O)c3ccc(Cl)cc3)c(N)c2C(=O)NCCc2ccc(OC)c(OC)c2)c1,inactive: 0.226%,–
CCCSc1nnc2n(-c3cccc(C)c3)c(=O)c3c4c(sc3n12)CCCC4,inactive: -15%,–
Cc1cccc(C(=O)OCc2cc(=O)n3nc(-c4cccs4)sc3n2)c1,inactive: -8.85%,–
Cc1ccc(-n2ncc(C(=O)NCCCN3CCN(C)CC3)c2C2CCN(C(=O)OC(C)(C)C)CC2)c(C)c1,inactive: 3.86%,–
CC(C)(C)OC(=O)N1CCC(c2c(C(=O)N3CCCCC3)cnn2-c2ccc(F)cc2F)CC1,inactive: 3.5%,–
Cn1c(Oc2ccccc2)nc2c1c(=O)n(Cc1ccc(Cl)cc1Cl)c(=O)n2C,inactive: -0.318%,–
O=C(CCn1cnc2onc(-c3ccc(F)cc3)c2c1=O)N1CCN(c2ccccc2F)CC1,inactive: -7.25%,–
CCOC(=O)C1CCCN(C(=O)c2ccc(NC(=O)c3nsc4ccccc34)cc2)C1 (configuration not stated),inactive: 12.8%,–
Cc1ccc2c(CC(=O)N(Cc3cccc(Cl)c3)C3CCS(=O)(=O)C3)coc2c1 (configuration not stated),inactive: -2.74%,–
Cc1ccc(C(=O)CC2(O)C(=O)N(Cc3ccccc3)c3ccccc32)c(C)c1 (configuration not stated),–,active: 18.5 µM
CNS(=O)(=O)c1cn(CC(=O)N2CCN(c3ccccc3OC)CC2)cc1S(=O)(=O)NC,inactive: -0.0851%,–
COC(=O)c1ccccc1NC(=O)Cn1c(=O)cc(C)c2c(C)nn(-c3cccc(Cl)c3C)c21,inactive: 3.23%,–
COc1ccc(Cl)cc1NC(=O)Cn1cnc2sc(C)c(S(=O)(=O)N3CCN(c4ccccc4OC)CC3)c2c1=O,inactive: 0.724%,–
O=C(CC1Nc2cccc3cccc(c23)NC1=O)Nc1ccc(F)cc1 (configuration not stated),inactive: -10.4%,–
Cc1ccc2c(c1)C(c1ccc(F)cc1)N(C(=O)c1cccc(C(F)(F)F)c1)CC(=O)N2 (configuration not stated),inactive: -12.4%,–
Cc1ccc(-n2nnnc2CNC(=O)c2ccccc2C)cc1C,inactive: 3.62%,–
COc1cccc(N2CCN(Cc3cc(=O)oc4cc(C)ccc34)CC2)c1,inactive: -2.69%,–
N#Cc1cccc(NC(=O)CCNS(=O)(=O)c2ccc3c(c2)CCN3C(=O)C2CC2)c1,inactive: 4.19%,–
O=C(Nc1nnc(S(=O)(=O)N2CCc3ccccc32)s1)c1ccccc1Cl,inactive: 7.87%,–
CCOC(=O)c1c(C)[nH]c(CCC(=O)NCCCN2CCN(c3ccccc3F)CC2)c1C,inactive: 4.35%,–
Cc1c2cnn(CC(=O)N3CCN(c4ccc(F)cc4)CC3)c(=O)c2c(C)n1Cc1ccccc1F,inactive: 0.0492%,–
Cc1cc(C)cc(-n2ccnc2SCC(=O)Nc2nc3ccc(C)cc3s2)c1,inactive: 0.643%,–

Structure (SMILES),"activity change, negative = inhibition",Potency
COc1ccc(-c2nc(Cn3c(=O)cc(C)c4c(C)nn(-c5ccccc5)c43)c(C)o2)c(OC)c1,inactive: -10%,–
CN(C)c1ccc(CNC(=O)Cn2ccc3cc(S(=O)(=O)N4CCCCCC4)ccc32)cc1,inactive: 0.202%,–
Cc1cccc(OCC(=O)Nc2ccc(-c3nc4cc(C)ccc4o3)c(O)c2)c1,inactive: 10.5%,–
CCC1CN(C(=O)N2CCC(C(=O)NCCC3=CCCCC3)CC2)c2cc(C)ccc2O1 (configuration not stated),inactive: 5%,–
CCn1cc2nc(SCc3ccc(C)cc3)n(CCc3ccccc3)c(=O)c2n1,inactive: -2.47%,–
Cc1ccc(OCC(=O)Nc2ccc(Cl)c(-c3nc4ccccc4[nH]3)c2)cc1C,inactive: -11.6%,–
COc1ccc(S(=O)(=O)N(CC(=O)N(C)Cc2ccccc2)c2ccc(Cl)cc2)cc1,inactive: -2.32%,–
COc1ccc(NC(=O)CSc2nnc(NC(=O)Nc3ccccc3)s2)c(OC)c1,inactive: 0.0486%,–
CCc1ccc(NC(=O)CSc2nc3ccccc3nc2Cc2ccccc2OC)cc1,inactive: -0.407%,–
Cc1cc(C)cc(NC(=O)N2CCN3CCCCC3C2)c1 (configuration not stated),inactive: 0.177%,–
CCOC(=O)c1ccc(NC(=O)c2c(NCc3sccc3C)sc3c2CCCCC3)cc1,inactive: -2.04%,–
CC(C)(C)c1ccc(C(=O)NC(Cc2c[nH]c3ccccc23)C(=O)OCC(=O)c2ccccc2)cc1 (configuration not stated),inactive: 2.06%,–
O=C(NC1CCCCC1)c1c[nH]c2ccc(S(=O)(=O)Nc3ccccc3F)cc2c1=O,inactive: 3.28%,–
CC1CCCN(c2cc3c(cc2F)c(=O)c(S(=O)(=O)c2cccc(Cl)c2)cn3C)C1 (configuration not stated),inactive: 0.165%,–
COc1ccc(Cn2c(=O)[nH]c3cc(C(=O)N4CCN(c5cccc(OC)c5)CC4)ccc3c2=O)cc1,inactive: -15.3%,–
Cn1cc(C(=O)NCc2ccc(Cl)cc2)c(=O)c2cc(S(=O)(=O)N3CCCCCC3)ccc21,inactive: -8.13%,–
COc1cccc(C(=O)Nc2cc3cc(OC)ccc3oc2=O)c1,inactive: -0.069%,–
Cc1cc(C)c2c(n1)SCCN2C(=O)Nc1ccc(C(=O)Nc2cc(Cl)ccc2C)cc1,inactive: -1.04%,–
Cc1cc(C(=O)NCCc2ccc(Cl)cc2)c2c(C)nn(-c3cccc(F)c3)c2n1,inactive: 2.77%,–
COC(=O)c1cc2sc(Cl)cc2n1Cc1nc(-c2ccc(OC)cc2)oc1C,inactive: 3.65%,–
COc1ccc(N(CC(=O)NCCc2cccc(C)c2)S(=O)(=O)c2c(C)noc2C)cc1,inactive: -0.341%,–
Cc1ccc(Cl)cc1NC(=O)COCc1cc(-c2ccco2)on1,inactive: -9.64%,–
CCCCSCCCNC(=O)CN1C(=O)COc2ccc(S(=O)(=O)N3CCC(C)CC3)cc21,inactive: -2%,–
